The other results are listed elsewhere or left out. The full chains were built here from the parent and the listed change. Inactive controls read about 0.05.
B1: TEV protease; numbered along this chain (parent)
chain: MGESLFKGPRDYNPISSSICHLTNESDGHTTSLYGIGFGPFIITNKHLFRRNNGTLVVQSLHGVFKVKDTTTLQQHLVDGRDMIIIRMPKDFPPFPQKLKFREPQREERICLVTTNFQTKSMSSMVSDTSCTFPSGDGIFWKHWIQTKDGQCGSPLVSTRDGFIVGIHSASNFTNTNNYFTSVPKNFMELLTNQEAQQWVSGWRLNADSVLWGGHKVFMVKPEEPFQPVKEATQL

Variants of: B1
Test: raw area under fraction-flipped curve 0-4 h after induction (AUC4h, not background-subtracted), DNA-recorder readout of cleavage of the substrate (dimensionless); higher = more cleavage of the substrate by the protease variant
Settings: temperature: 34 °C; time window: 0-4 h after rhamnose induction
Protocol: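 In vivo DNA recorder in E. coli TOP10(DE3) ΔrhaA at 34 °C. Each TEVp single-site mutant (parent TEVp 0) is paired with a single-site variant of the 7-mer TEVs (canonical ENLYFQ|S). The substrate sits between flexible linkers in a Bxb1-sfGFP-TEVs-SsrA fusion, so cleavage stabilises Bxb1 and speeds flipping of a recombination array, read by NGS. The value is the raw area under the fraction-flipped curve over 0-4 h after rhamnose induction (AUC4h), with ≥20 reads per time point. It is not background-subtracted; inactive controls average about 0.047.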
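Further: Bxb1 expression induced with 0.2% (w/v) L-rhamnose at OD600 near 0.5, cultures sampled hourly, flipped fraction per protease–substrate barcode pair counted by paired-end Illumina sequencing.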

Variant: MGESLFKGPRDYNPISSSICHLTNESDGHTTSLYGIGFGPFIITNKHLFRRNNGTLVVQSLHGVFKVKDTTTLQQHLVDGRDMIIIRMPKDFPPFPQKLKFREPQREERICLVTTNFQTKSMSSMVSDTSCTFPSGDGIFWKHWIQTKDGQCGSPLVSTRDGFPVGIHSASNFTNTNNYFTSVPKNFMELLTNQEAQQWVSGWRLNADSVLWGGHKVFMVKPEEPFQPVKEATQL [I164P]
- area with substrate ENLAFQS: 0.0656
- area with substrate ENLCFQS: 0.0586
- area with substrate ENLDFQS: 0.0523
- area with substrate ENLEFQS: 0.0641
- area with substrate ENLFFQS: 0.0537
- area with substrate ENLHFQS: 0.0592
- area with substrate ENLIFQS: 0.0714
- area with substrate ENLKFQS: 0.0633
- area with substrate ENLLFQS: 0.0474
- area with substrate ENLNFQS: 0.0343
- area with substrate ENLPFQS: 0.052
- area with substrate ENLQFQS: 0.0475
- area with substrate ENLRFQS: 0.0582
- area with substrate ENLSFQS: 0.048
- area with substrate ENLVFQS: 0.0438
- area with substrate ENLWFQS: 0.0605

Variant: MGESLFKGPRDYNPISSSICHLTNESDGHTTSLYGIGFGPFIITNKHLFRRNNGTLVVQSLHGVFKVKDTTTLQQHLVDGRDMIIIRMPKDFPPFPQKLKFREPQREERICLVTTNFQTKSMSSMVSDTSCTFPSGDGIFWKHWIQTKDGQCGSPLVSTRDGFWVGIHSASNFTNTNNYFTSVPKNFMELLTNQEAQQWVSGWRLNADSVLWGGHKVFMVKPEEPFQPVKEATQL [I164W]
- area with substrate ENLAFQS: 0.0324
- area with substrate ENLCFQS: 0.0487
- area with substrate ENLEFQS: 0.058
- area with substrate ENLFFQS: 0.0488
- area with substrate ENLHFQS: 0.0741
- area with substrate ENLIFQS: 0.0594
- area with substrate ENLKFQS: 0.0678
- area with substrate ENLNFQS: 0.061
- area with substrate ENLPFQS: 0.0541
- area with substrate ENLWFQS: 0.0685

Variant: MGESLFKGPRDYNPISSSICHLTNESDGHTTSLYGIGFGPFIITNKHLFRRNNGTLVVQSLHGVFKVKDTTTLQQHLVDGRDMIIIRMPKDFPPFPQKLKFREPQREERICLVTTNFQTKSMSSMVSDTSCTFPSGDGIFWKHWIQTKDGQCGSPLVSTRDGFIFGIHSASNFTNTNNYFTSVPKNFMELLTNQEAQQWVSGWRLNADSVLWGGHKVFMVKPEEPFQPVKEATQL [V165F]
- area with substrate ENLAFQS: 0.0504
- area with substrate ENLDFQS: 0.0599
- area with substrate ENLEFQS: 0.0424
- area with substrate ENLHFQS: 0.0524
- area with substrate ENLKFQS: 0.0603
- area with substrate ENLMFQS: 0.0499
- area with substrate ENLPFQS: 0.0674

Variant: MGESLFKGPRDYNPISSSICHLTNESDGHTTSLYGIGFGPFIITNKHLFRRNNGTLVVQSLHGVFKVKDTTTLQQHLVDGRDMIIIRMPKDFPPFPQKLKFREPQREERICLVTTNFQTKSMSSMVSDTSCTFPSGDGIFWKHWIQTKDGQCGSPLVSTRDGFISGIHSASNFTNTNNYFTSVPKNFMELLTNQEAQQWVSGWRLNADSVLWGGHKVFMVKPEEPFQPVKEATQL [V165S]
- area with substrate ENLAFQS: 0.0416
- area with substrate ENLCFQS: 0.0565
- area with substrate ENLDFQS: 0.0571
- area with substrate ENLEFQS: 0.0484
- area with substrate ENLFFQS: 0.0322
- area with substrate ENLGFQS: 0.0635
- area with substrate ENLKFQS: 0.0538
- area with substrate ENLNFQS: 0.0638
- area with substrate ENLPFQS: 0.031
- area with substrate ENLQFQS: 0.0399
- area with substrate ENLSFQS: 0.0575
- area with substrate ENLVFQS: 0.0697

Variant: MGESLFKGPRDYNPISSSICHLTNESDGHTTSLYGIGFGPFIITNKHLFRRNNGTLVVQSLHGVFKVKDTTTLQQHLVDGRDMIIIRMPKDFPPFPQKLKFREPQREERICLVTTNFQTKSMSSMVSDTSCTFPSGDGIFWKHWIQTKDGQCGSPLVSTRDGFIVNIHSASNFTNTNNYFTSVPKNFMELLTNQEAQQWVSGWRLNADSVLWGGHKVFMVKPEEPFQPVKEATQL [G166N]
- area with substrate ENLAFQS: 0.0606
- area with substrate ENLEFQS: 0.0494
- area with substrate ENLFFQS: 0.0616
- area with substrate ENLHFQS: 0.0564
- area with substrate ENLKFQS: 0.0615
- area with substrate ENLLFQS: 0.0493
- area with substrate ENLMFQS: 0.0721
- area with substrate ENLNFQS: 0.0488
- area with substrate ENLPFQS: 0.0611
- area with substrate ENLRFQS: 0.0315
- area with substrate ENLSFQS: 0.0495

Variant: MGESLFKGPRDYNPISSSICHLTNESDGHTTSLYGIGFGPFIITNKHLFRRNNGTLVVQSLHGVFKVKDTTTLQQHLVDGRDMIIIRMPKDFPPFPQKLKFREPQREERICLVTTNFQTKSMSSMVSDTSCTFPSGDGIFWKHWIQTKDGQCGSPLVSTRDGFIVPIHSASNFTNTNNYFTSVPKNFMELLTNQEAQQWVSGWRLNADSVLWGGHKVFMVKPEEPFQPVKEATQL [G166P]
- area with substrate ENLAFQS: 0.0351
- area with substrate ENLDFQS: 0.0505
- area with substrate ENLEFQS: 0.0395
- area with substrate ENLFFQS: 0.0684
- area with substrate ENLGFQS: 0.0576
- area with substrate ENLHFQS: 0.0472
- area with substrate ENLIFQS: 0.06
- area with substrate ENLKFQS: 0.0622
- area with substrate ENLLFQS: 0.0551
- area with substrate ENLPFQS: 0.0432
- area with substrate ENLQFQS: 0.0621
- area with substrate ENLRFQS: 0.0698
- area with substrate ENLSFQS: 0.0498

Variant: MGESLFKGPRDYNPISSSICHLTNESDGHTTSLYGIGFGPFIITNKHLFRRNNGTLVVQSLHGVFKVKDTTTLQQHLVDGRDMIIIRMPKDFPPFPQKLKFREPQREERICLVTTNFQTKSMSSMVSDTSCTFPSGDGIFWKHWIQTKDGQCGSPLVSTRDGFIVGIHRASNFTNTNNYFTSVPKNFMELLTNQEAQQWVSGWRLNADSVLWGGHKVFMVKPEEPFQPVKEATQL [S169R]
- area with substrate ENLAFQS: 0.0725
- area with substrate ENLDFQS: 0.0714
- area with substrate ENLEFQS: 0.0603
- area with substrate ENLFFQS: 0.0746
- area with substrate ENLHFQS: 0.0563
- area with substrate ENLIFQS: 0.0833
- area with substrate ENLKFQS: 0.0638
- area with substrate ENLNFQS: 0.0627
- area with substrate ENLPFQS: 0.0559
- area with substrate ENLQFQS: 0.0521
- area with substrate ENLRFQS: 0.0655
- area with substrate ENLSFQS: 0.0623
- area with substrate ENLWFQS: 0.0468

Variant: MGESLFKGPRDYNPISSSICHLTNESDGHTTSLYGIGFGPFIITNKHLFRRNNGTLVVQSLHGVFKVKDTTTLQQHLVDGRDMIIIRMPKDFPPFPQKLKFREPQREERICLVTTNFQTKSMSSMVSDTSCTFPSGDGIFWKHWIQTKDGQCGSPLVSTRDGFIVGIHSASNFTDTNNYFTSVPKNFMELLTNQEAQQWVSGWRLNADSVLWGGHKVFMVKPEEPFQPVKEATQL [N175D]
- area with substrate ENLAFQS: 0.0568
- area with substrate ENLCFQS: 0.0566
- area with substrate ENLDFQS: 0.0609
- area with substrate ENLFFQS: 0.0705
- area with substrate ENLGFQS: 0.0743
- area with substrate ENLHFQS: 0.0242
- area with substrate ENLIFQS: 0.0621
- area with substrate ENLKFQS: 0.0729
- area with substrate ENLNFQS: 0.0779
- area with substrate ENLPFQS: 0.0588
- area with substrate ENLQFQS: 0.0628
- area with substrate ENLRFQS: 0.0629
- area with substrate ENLSFQS: 0.0538
- area with substrate ENLWFQS: 0.0656

Variant: MGESLFKGPRDYNPISSSICHLTNESDGHTTSLYGIGFGPFIITNKHLFRRNNGTLVVQSLHGVFKVKDTTTLQQHLVDGRDMIIIRMPKDFPPFPQKLKFREPQREERICLVTTNFQTKSMSSMVSDTSCTFPSGDGIFWKHWIQTKDGQCGSPLVSTRDGFIVGIHSASNFTYTNNYFTSVPKNFMELLTNQEAQQWVSGWRLNADSVLWGGHKVFMVKPEEPFQPVKEATQL [N175Y]
- area with substrate ENLAFQS: 0.0802
- area with substrate ENLDFQS: 0.0696
- area with substrate ENLFFQS: 0.081
- area with substrate ENLKFQS: 0.0678
- area with substrate ENLLFQS: 0.0805
- area with substrate ENLNFQS: 0.0683
- area with substrate ENLPFQS: 0.0579
- area with substrate ENLQFQS: 0.0544
- area with substrate ENLSFQS: 0.0664
- area with substrate ENLTFQS: 0.0642
- area with substrate ENLWFQS: 0.0531

Variant: MGESLFKGPRDYNPISSSICHLTNESDGHTTSLYGIGFGPFIITNKHLFRRNNGTLVVQSLHGVFKVKDTTTLQQHLVDGRDMIIIRMPKDFPPFPQKLKFREPQREERICLVTTNFQTKSMSSMVSDTSCTFPSGDGIFWKHWIQTKDGQCGSPLVSTRDGFIVGIHSASNFTNWNNYFTSVPKNFMELLTNQEAQQWVSGWRLNADSVLWGGHKVFMVKPEEPFQPVKEATQL [T176W]
- area with substrate ENLAFQS: 0.0526
- area with substrate ENLCFQS: 0.0648
- area with substrate ENLDFQS: 0.072
- area with substrate ENLEFQS: 0.0522
- area with substrate ENLFFQS: 0.0562
- area with substrate ENLHFQS: 0.0552
- area with substrate ENLIFQS: 0.076
- area with substrate ENLKFQS: 0.0523
- area with substrate ENLMFQS: 0.0538
- area with substrate ENLVFQS: 0.06

Reference: the supplement of paper PMC12217912
